# According to article PMC12136788:
# This is one part of the list.
# B1: chr19:7926739:7926850:-|3pUTR|ENSG00000104980|unk|total|mutant (ssRNA)
# RNA: GGGAGUUCUACAGUCCGACGAUCAGGGUGGGACCCGGGACCCGCGGCUCAGUGGCCCGCCCGCCACGUCAGCCAAGCCACUUCCGGUCCAUUUUUUAAUUUUAACAGUGCUCUUCCAUCUUGUGCAUAAGCCUGAGAUUUGGACAACAGAGGAUUGAGCAUCA
# B2: chr20:37241422:37241523:+|3pUTR|ENSG00000118705|msi1_unk|FALSE|overlapping (ssRNA)
# RNA: GGGAGUUCUACAGUCCGACGAUCGUAUGAGAAGAAAAAUGGAAAAAAAAAACUUUAUUUAAAAAAGAAAAAAGUCCAGAUUGUAGUUAUACUUUUGCUUGUUUUUCAGUUUCCCCAACACACAGCAGAUACCUGGUGAGCUCACAACAGAGGAUUGAGCAUCA
# B3: chr10:72012227:72012328:+|3pUTR|ENSG00000122863|msi1|FALSE|unique (ssRNA)
# RNA: GGGAGUUCUACAGUCCGACGAUCCAAUGGAAGGAGCUUCAGCAGGAGGUCCUUCCCAGAAGGUUGAUUCUUGGCCUGGGUGGUAGAGGAGAUAUCCUGACCCUAAAGUCUUCCAGCCCCGGGUCAUCCUCUCCUAUACUAGGGCAACAGAGGAUUGAGCAUCA
# B4: ENSG00000173273:stop:overlap|stop_codon|ENSG00000173273|stop_codon|NA|stop_codon (ssRNA)
# RNA: GGGAGUUCUACAGUCCGACGAUCACCAGAUCAUGAAGCCAGAAGCCCCUUCCCAGACCGCAACAGCCGCAGAGCAGAAGACCUAGUGAAUGCCUGCUGGUGAAGGCCAGAUCAGAUUUCAACCUGGGACUGGAUUACAGAGGACAACAGAGGAUUGAGCAUCA
# B5: chr13:24434660:24434761:-|CDS|ENSG00000102699|unk|total|mutant (ssRNA)
# RNA: GGGAGUUCUACAGUCCGACGAUCCCCUCUGCUUCCUCUCCUUUUCAUUUUCAACCUUCCGCAGCCUCUUUGACUGCCAACCUCCGGCUGCCAAUGGCCUCUGCUUUACCUGAGGCUCUUUGCAGUCAGUCCCGGACUACCCCACAACAGAGGAUUGAGCAUCA
# B6: ENSG00000112335:stop:overlap|stop_codon|ENSG00000112335|stop_codon|NA|stop_codon (ssRNA)
# RNA: GGGAGUUCUACAGUCCGACGAUCAGGCAAGGAGUCAUGGAAGGACGUGGUGUGCUCAGAAUGAUGAAAAGUUAUUUUGUGACUAGAAAGUCGUAGUUCCCCCGCUCCCUGGGAAAGCGUUUUUGCGUCAGCUUCCUUUUAGAGCAACAGAGGAUUGAGCAUCA
# B7: chr15:63774837:63774950:-|CDS|ENSG00000103657|unk|total|mutant (ssRNA)
# RNA: GGGAGUUCUACAGUCCGACGAUCGUAACAACAUUUCUUAAAGGAGUCACUAUUCCUAAUUCUGGGGCAGACACUUCCGGUCGCCGAUCCGCUUCUGAGUUGCUGCUUGGUUUGGCAGCUCAACGAGGCUCAUUGCGAUAUCUUCAACAGAGGAUUGAGCAUCA
# B8: chr1:158329851:158330130:-|CDS|ENSG00000158485|control|control|control (ssRNA)
# RNA: GGGAGUUCUACAGUCCGACGAUCCAUAGCAGGCUGUGAGCUACAUUCUGGAGGUGCCAUAGUAAGCUUCCUGAGGGGAGCUCUAGGAGGAUUGGAUUUCCUGAGUGUCAAGAAUGCUUCAUGUGUGCCUUCCCCAGAAGGUGGCAACAGAGGAUUGAGCAUCA
# B9: chr8:18529670:18529771:-|3pUTR|ENSG00000156011|msi1|FALSE|bound_elsewhere (ssRNA)
# RNA: GGGAGUUCUACAGUCCGACGAUCUAAAGCCAUGGAGUUUAUAAAGCCAAGUAACCAUUUGAUAUGGAUAAUAAUAUCUACUCUAGAGAGAGUAUAUAUAUGCACAUUGAUUUUUAAUGCUGUUAAGAUACUUUUGUAAAACUGCAACAGAGGAUUGAGCAUCA
# B10: chr2:209733988:209734100:+|3pUTR|ENSG00000078018|unk|FALSE|unique (ssRNA)
# RNA: GGGAGUUCUACAGUCCGACGAUCUCUGAUAAUUCUAGAGCCUGUUACCAUAGAAAGGCAUUUCUUCAAUGGCUGGUUGUAGUUAGUUCAUGUUUUUCAAUCAAAUUUGCAAAUGUAUUUGUUGCUGUAUAGUGAUUGUUUUGCCAACAGAGGAUUGAGCAUCA
# B11: chr6:108211900:108211976:-|3pUTR|ENSG00000112335|msi1_unk|FALSE|overlapping (ssRNA)
# RNA: GGGAGUUCUACAGUCCGACGAUCGUUGACAAGAAGUUAAUUUGCUUUAGUAAAAAUCCCUCAUUCCAGCCUUUCUAUAUAAAUAGCUCUUUCUUGCUGUUUUAAUGUGGUGCACACUAUAGCCUCACAAACCUGUUAUUCCAGCAACAGAGGAUUGAGCAUCA
# B12: chr7:20412070:20412171:+|3pUTR|ENSG00000105855|msi1|FALSE|unique (ssRNA)
# RNA: GGGAGUUCUACAGUCCGACGAUCCUUUUUUUUUAUAAUAAACUUCCAAGAUUUGCUGUCUUCCAGCACUUGAGUUAAAGUACUAGAUACUGCAUUUUGAUGAAGACUAACCCCAUCUCAUAUUCUACCCUAAAGAGAACUGAACAACAGAGGAUUGAGCAUCA
# B13: ENSG00000198589:be:win_5051|CDS|ENSG00000198589|bound_else_gene|NA|bound_elsewhere_windowed (ssRNA)
# RNA: GGGAGUUCUACAGUCCGACGAUCGCUUGGUUAACAUACCAGCAGAUGGAGUCACAGUGGAUCCUGCCCUUCUGCCACCAGCCUGCCUUGGAGCCCUUGGUGAUCUAUCUGUGGAACAACCCGUGCAGUUCAGAUCUUUUGACACAACAGAGGAUUGAGCAUCA
# B14: chr8:81702113:81702224:-|3pUTR|ENSG00000104231|unk|total|mutant (ssRNA)
# RNA: GGGAGUUCUACAGUCCGACGAUCGUACCGCCUUGCUGUCUGUCUACAUCAUGAUGUAUAAAUUGAUAUAUCUACAUGAAUUACCGAAACUCCGAAGUGAUCUUUAUUCAGUCUUAUAAUUUUUACAUGAAGAAUCUCCGGCCUCAACAGAGGAUUGAGCAUCA
# B15: chr1:66374421:66374522:+|3pUTR|ENSG00000184588|msi1|total|mutant (ssRNA)
# RNA: GGGAGUUCUACAGUCCGACGAUCACUGCAUUGUUUCAGGUGGACAUUUUAUCAUUUUCAAAUGUUUCUCACAAUGUAUGUUACCGUAUUAUUAUUAUAUAUUGUGUUCAAAUGCAUUCUAAAGAGACUUUUAUAUGAGGUGAACAACAGAGGAUUGAGCAUCA
# B16: ENSG00000110906:stop:overlap|stop_codon|ENSG00000110906|stop_codon|NA|stop_codon (ssRNA)
# RNA: GGGAGUUCUACAGUCCGACGAUCGCUGCCUCCCUUUACUCCCAGUCCCAUUUACAAAAAUAACGUUUGUGUUUUACCAGUUAUAGUUGUAGUACCCAUUCAUUAUAGAAAAUCUGGAAAAGCUAGACAAUUCUUUUUCAGUUUCAACAGAGGAUUGAGCAUCA
# B17: chr10:62096657:62096758:+|3pUTR|ENSG00000150347|msi1|total|mutant (ssRNA)
# RNA: GGGAGUUCUACAGUCCGACGAUCACCUCUAUGCUCUGUAAGGUGAUUAUUUGUAUACCGCAACAUGGCCCAGUGAUAUUAUACCGUUUCCCAAUGGAGAGGUUAUUGAGUAACCUUUGCAUCCGUUUAAACACUACCAGAAGACAACAGAGGAUUGAGCAUCA
# B18: chr6:43287355:43287456:+|3pUTR|ENSG00000146216|unk|total|mutant (ssRNA)
# RNA: GGGAGUUCUACAGUCCGACGAUCUAUGACUCCUGGUGCCCAGGCCCUGGGCCUGCUCCUUGCCACCAACCGAACCGUGAAUGCCGGGCCCCCAGCCUCACCUCUGCCCCAGGACCAACAACACCCUGGUUUGGAGCUGGGAGGCAACAGAGGAUUGAGCAUCA
# B19: chr1:204554719:204554820:+|3pUTR|ENSG00000198625|unk|FALSE|unique (ssRNA)
# RNA: GGGAGUUCUACAGUCCGACGAUCAAGUACUUUCUUUUGACAGAAAUUUUCAUUCUGCUUGCCAUUGCUAUAUUCUCCCUUUAUAGGAGCCAUUGGAUUUCUUUCCUUUUGUGGGAAAUGUCCCAUUAGCAUUUUCAGAUCUUUCAACAGAGGAUUGAGCAUCA
# B20: chr4:65323451:65323552:-|3pUTR|ENSG00000145242|msi1|total|mutant (ssRNA)
# RNA: GGGAGUUCUACAGUCCGACGAUCAUCAAGAAAAAGUACAAUACAGGGUGUAUAUUUAUUUUUUGUGUUAUAAAGUUUACUUUCCGUUGCUCUUCCCGAGAUUAUCCGGUAAUAAAUGUGUAUAUACUGUAUAAUUUGCAAUAUCAACAGAGGAUUGAGCAUCA
# B21: chr3:87253716:87253817:+|CDS|ENSG00000083937|unk|total|mutant (ssRNA)
# RNA: GGGAGUUCUACAGUCCGACGAUCUGCCUCUACUUCAAAGGCUACAAUCUCAGAUGAAGAGAUUGAACGGCAACUCAAGGCUUCCGGAGCCGAUCCGUCAAAAGAAGUCAUACUAUUUUGCUUACUUAUAAUUAUGCCGUAUAACAACAGAGGAUUGAGCAUCA
# B22: chr9:113264340:113264441:+|3pUTR|ENSG00000136868|msi1|total|mutant (ssRNA)
# RNA: GGGAGUUCUACAGUCCGACGAUCAAAGUCUGCAUUUGAUAUAAUGCCUUAAUUACUGGGUCUACAAUUAAUGUUGACUGUUUCCGAUUGUAAGCUCCUGGAGAGCAGUAUUGCUGCCGCCGGAAUGUUUUAACAGUGUCAUAUCAACAGAGGAUUGAGCAUCA
# Molecular target: MSI1 full-length (mouse, UniProt Q61474 1-362)
# Chain of UniProt Q61474 (Q61474 whole entry): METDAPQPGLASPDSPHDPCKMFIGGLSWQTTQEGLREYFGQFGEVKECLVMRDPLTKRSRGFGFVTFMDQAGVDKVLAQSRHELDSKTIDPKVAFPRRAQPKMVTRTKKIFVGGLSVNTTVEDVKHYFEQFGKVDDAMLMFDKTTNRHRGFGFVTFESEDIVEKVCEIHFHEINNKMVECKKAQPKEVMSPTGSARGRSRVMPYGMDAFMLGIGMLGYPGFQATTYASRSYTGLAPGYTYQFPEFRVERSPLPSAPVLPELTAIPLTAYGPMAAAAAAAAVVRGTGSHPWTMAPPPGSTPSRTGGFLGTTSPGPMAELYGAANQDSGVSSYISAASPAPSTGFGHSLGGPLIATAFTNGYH
# Test: nsRBNS (natural sequence RNA bind-n-seq); RBNS binding buffer (assumed for nsRBNS): 25 mM Tris pH 7.5, 150 mM KCl, 3 mM MgCl2, 0.01% Triton X-100, 500 ug/ml BSA, 20 U/ml SUPERase-In, 4 C; UNK is unkempt and MSI1 is Musashi-1; names of the RNAs are library labels; protein concentration not given here; high values mean tight binding
row,Binder,binding signal
1,B1,0.477 enrichment R
2,B2,1.41 enrichment R
3,B3,0.344 enrichment R
4,B4,1.3 enrichment R
5,B5,0.763 enrichment R
6,B6,0.354 enrichment R
7,B7,0.406 enrichment R
8,B8,0.498 enrichment R
9,B9,0.574 enrichment R
10,B10,2.97 enrichment R
11,B11,1.23 enrichment R
12,B12,0.785 enrichment R
13,B13,0.536 enrichment R
14,B14,0.94 enrichment R
15,B15,0.538 enrichment R
16,B16,0.671 enrichment R
17,B17,0.358 enrichment R
18,B18,0.465 enrichment R
19,B19,0.583 enrichment R
20,B20,1.51 enrichment R
21,B21,0.786 enrichment R
22,B22,0.304 enrichment R
